The target in assay [1] is T1, Fc-tagged purified human recombinant TLT-1 (TREM-like transcript 1) (human) (UniProt Q86YW5).
T1 sequence: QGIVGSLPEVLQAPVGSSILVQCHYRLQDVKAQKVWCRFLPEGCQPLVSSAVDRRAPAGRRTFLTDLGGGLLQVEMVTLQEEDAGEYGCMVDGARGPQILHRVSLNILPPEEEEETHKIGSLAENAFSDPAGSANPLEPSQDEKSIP
Kind of assay: co-IP; intact Jurkat cells incubated 15 min with Fc-tagged purified TLT-1 or IgG as control; lysate in mild IP lysis buffer (not boiled); 1 mg total protein with Protein A/G Dynabeads; immunoblot for individual targets with non-IP lysate as input; only the target purified.

The chains behind the UniProt entries cited, without tags or fusion partners. Where a name states a change or a piece, a line headed by the entry shows the natural chain unless it says otherwise. Residues count along the entry.
UniProt P09693, residues 23-182: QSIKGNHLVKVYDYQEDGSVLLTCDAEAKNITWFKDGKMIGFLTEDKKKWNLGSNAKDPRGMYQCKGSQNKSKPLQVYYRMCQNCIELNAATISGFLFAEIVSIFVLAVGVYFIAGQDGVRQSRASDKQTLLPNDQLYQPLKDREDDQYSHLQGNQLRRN
UniProt P04234, residues 22-171: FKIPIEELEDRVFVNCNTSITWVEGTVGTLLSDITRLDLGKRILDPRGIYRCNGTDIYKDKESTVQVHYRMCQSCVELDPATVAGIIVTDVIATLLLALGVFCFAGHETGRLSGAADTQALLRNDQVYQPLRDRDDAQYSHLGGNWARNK
UniProt P07766, residues 23-207: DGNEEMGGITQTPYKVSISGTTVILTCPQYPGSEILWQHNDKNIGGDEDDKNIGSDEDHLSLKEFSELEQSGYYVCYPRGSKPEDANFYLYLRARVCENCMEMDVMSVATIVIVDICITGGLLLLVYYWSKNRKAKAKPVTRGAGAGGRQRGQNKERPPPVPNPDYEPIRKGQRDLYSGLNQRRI
UniProt P10747, residues 19-220: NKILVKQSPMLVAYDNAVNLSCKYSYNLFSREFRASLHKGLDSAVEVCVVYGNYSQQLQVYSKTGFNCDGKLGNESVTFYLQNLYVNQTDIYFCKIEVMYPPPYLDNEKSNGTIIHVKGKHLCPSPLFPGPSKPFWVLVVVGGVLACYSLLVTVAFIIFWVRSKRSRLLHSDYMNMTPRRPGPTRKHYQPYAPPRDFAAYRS

Assay [2] deals with T1, Fc-tagged purified human recombinant TLT-1 (TREM-like transcript 1) (human). The description is as above. This is another data set of the same source.

Read-outs that look alike come from different tables or passages of the source. These are yes or no findings as the source states them, for the method shown. In cells and extracts the contact can be indirect. Some entries that bind do so weakly or less than the wild type. Tags and fused reporters may be left off the sequences shown.

For “CD3γ (from UniProt P09693 23-182) (receptor)”, the binding result in assay [1] is on record as “no binding”.
“CD3δ (from UniProt P04234 22-171) (receptor)”: the binding entry in assay [1] is listed as “no binding”.
Same read-out and setting: for “CD3ε (ε subunit of the CD3 receptor) (from UniProt P07766 23-207)” the value was “binds”.
Same read-out and setting: in the case of “CD28 (from UniProt P10747 19-220) (receptor)” it was “no binding”.

B1: TRAILR3 (receptor, UniProt O14798 26-236)
chain: ATTARQEEVPQQTVAPQQQRHSFKGEECPAGSHRSEHTGACNPCTEGVDYTNASNNEPSCFPCTVCKSDQKHKSSCTMTRDTVCQCKEGTFRNENSPEMCRKCSRCPSGEVQVSNCTSWDDIQCVEEFGANATVETPAAEETMNTSPGTPAPAAEETMNTSPGTPAPAAEETMTTSPGTPAPAAEETMTTSPGTPAPAAEETMITSPGTPA
For the molecule B1, in assay [2], the binding entry is reported as “no binding”.

(Values after paper PMC9814191.)
